According to the antibiotic and cytotoxicity screens of Wong et al. (2023):
Some of the results follow.

How the values were obtained:
[1] = tested on: HSkMC (human skeletal muscle cells); experiment: cytotoxicity call (relative viability < 0.9); settings: 10 µM
[2] = tested on: HepG2; experiment: cytotoxicity call (relative viability < 0.9); settings: 10 µM
[3] = tested on: S. aureus RN4220; experiment: growth inhibition call (relative growth <= 0.2); settings: 50 µM

SMILES | cytotoxicity call [1] | cytotoxicity call [2] | growth inhibition call [3]
COc1ccc(NC(=O)Nc2ccc3c(c2)C(=O)N([C@H](C)CO)C[C@H](C)[C@H](CN(C)Cc2ccc(Cl)c(Cl)c2)OCCCC[C@H](C)O3)cc1 | active | inactive | inactive
C[C@@H]1CN([C@H](C)CO)C(=O)Cc2cc(NC(=O)C3CCCCC3)ccc2O[C@H]1CN(C)Cc1ccc(C(=O)Nc2ccccc2N)cc1 | inactive | inactive | inactive
C[C@@H](O)C#Cc1cnc2c(c1)C(=O)N([C@@H](C)CO)C[C@H](C)[C@@H](CN(C)C(=O)Nc1ccc(C(F)(F)F)cc1)O2 | inactive | inactive | inactive
C[C@@H]1CCCCO[C@H](CN(C)S(=O)(=O)c2ccccc2)[C@@H](C)CN([C@H](C)CO)C(=O)c2cc(NS(=O)(=O)c3cn(C)cn3)ccc2O1 | inactive | inactive | inactive
COc1ccc(S(=O)(=O)Nc2ccc3c(c2)C(=O)N([C@@H](C)CO)C[C@@H](C)[C@H](CN(C)S(=O)(=O)c2cn(C)cn2)O3)cc1 | inactive | inactive | inactive
C[C@H]1CCCCO[C@H](CN(C)Cc2ccccc2)[C@@H](C)CN([C@@H](C)CO)C(=O)c2cc(NC(=O)C3CCCCC3)ccc2O1 | inactive | inactive | inactive
COc1cccc(NC(=O)C[C@@H]2CC[C@H]3[C@H](COc4ccc(NC(=O)C5CCOCC5)cc4C(=O)N3C)O2)c1 | inactive | inactive | inactive
C[C@@H]1CN([C@H](C)CO)C(=O)c2cc(NC(=O)Cn3cnnn3)ccc2O[C@@H]1CN(C)S(=O)(=O)c1ccc(Cl)cc1 | inactive | inactive | inactive
C[C@@H]1CCCCO[C@@H](CN(C)C(=O)Cc2ccccc2)[C@H](C)CN([C@@H](C)CO)C(=O)c2cc(NC(=O)Nc3ccc(C(F)(F)F)cc3)ccc2O1 | inactive | inactive | inactive
C[C@@H]1CCCCO[C@H](CN(C)C(=O)Nc2ccccc2)[C@H](C)CN([C@@H](C)CO)C(=O)c2cc(NC(=O)Nc3ccc4c(c3)OCO4)ccc2O1 | inactive | inactive | inactive
CCCNC(=O)N(C)C[C@@H]1Oc2ncc(-c3ccc(C(=O)N(C)C)cc3)cc2C(=O)N([C@@H](C)CO)C[C@@H]1C | inactive | inactive | inactive
COc1ccccc1C#Cc1cnc2c(c1)C(=O)N([C@H](C)CO)C[C@H](C)[C@H](CN(C)S(=O)(=O)c1cn(C)cn1)O2 | inactive | inactive | inactive
C[C@H](CO)N1C[C@H](C)[C@@H](CN(C)Cc2ccccc2)OCCCC[C@H](C)Oc2ccc(NC(=O)C3CCCCC3)cc2C1=O | inactive | inactive | inactive
Cc1ccc(S(=O)(=O)Nc2ccc3c(c2)C(=O)N([C@@H](C)CO)C[C@@H](C)[C@@H](CN(C)C(=O)Nc2ccc(C(F)(F)F)cc2)OCCCC[C@@H](C)O3)cc1 | inactive | inactive | inactive
Cc1cc(=O)n2nc(CC(=O)NCCCn3c(C)cccc3=O)nc2[nH]1 | inactive | inactive | inactive
C[C@@H]1CN([C@H](C)CO)C(=O)CCCn2cc(nn2)CO[C@H]1CN(C)C(=O)Nc1ccccc1C(F)(F)F | inactive | inactive | inactive
C[C@H]1CN([C@@H](C)CO)C(=O)c2cc(NC(=O)Nc3cccc4ccccc34)ccc2O[C@@H]1CN(C)S(=O)(=O)c1ccc(Cl)cc1 | inactive | inactive | inactive
O=C(C[C@@H]1C[C@@H]2c3cc(NC(=O)C4CCOCC4)ccc3O[C@@H]2[C@H](CO)O1)NCc1ccc(Cl)cc1 | inactive | inactive | inactive
C[C@H](CO)N1C[C@H](C)[C@@H](CN(C)Cc2ccc(C(F)(F)F)cc2)Oc2ccc(NS(=O)(=O)c3ccc(Cl)cc3)cc2C1=O | active | active | inactive
O=C(CN1CCOCC1)N[C@@H]1CC[C@@H](CCn2cc(C3CC3)nn2)O[C@@H]1CO | inactive | inactive | inactive
CC(C)NC(=O)N(C)C[C@@H]1OCCCC[C@@H](C)Oc2ccc(NC(=O)C3CCCCC3)cc2C(=O)N([C@@H](C)CO)C[C@@H]1C | inactive | inactive | inactive
O=C(O)c1csc2c1CCCCC2 | inactive | inactive | inactive
Cc1noc(C)c1NC(=O)Nc1ccc2c(c1)CC(=O)N([C@@H](C)CO)C[C@@H](C)[C@H](CN(C)Cc1ccc(-c3ccccc3)cc1)O2 | inactive | inactive | inactive
C[C@H]1CCCCO[C@@H](CN(C)C(=O)CCCN(C)C)[C@@H](C)CN([C@@H](C)CO)C(=O)c2cc(NS(C)(=O)=O)ccc2O1 | inactive | inactive | inactive
